Data reported in the supplement of paper PMC8728848.
Some of the results follow.

How the values were obtained:
Experiment in all cases: glycan array binding signal (z-score within array); higher = stronger binding
Details in all cases: glycan notation: IUPAC condensed, linker removed
Gal(a1-3)GalNAc = biological target: Gal(a1-3)GalNAc
Summary of the method: (§1)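 The binding signal is a Z-score computed within each array and averaged over linkers. Arrays of the same protein sequence at different concentrations or buffers were also averaged together. Data originate from 3228 arrays in the Consortium for Functional Glycomics database, kept only where the protein sequence was available.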

[1] = biological target: Gal(a1-3)[Gal(a1-4)]Gal(b1-4)GlcNAc
Summary of the method: as §1

[2] = biological target: Gal(a1-4)Gal(b1-3)GlcNAc(b1-2)Man(a1-3)[Gal(a1-4)Gal(b1-3)GlcNAc(b1-2)Man(a1-6)]Man(b1-4)GlcNAc(b1-4)GlcNAc
Summary of the method: as §1

Gal(a1-4)Gal(b1-4)Glc = biological target: Gal(a1-4)Gal(b1-4)Glc
Summary of the method: as §1

Gal(a1-4)Gal(b1-4)GlcNAc = biological target: Gal(a1-4)Gal(b1-4)GlcNAc
Summary of the method: as §1

[3] = biological target: Gal(a1-4)Gal(b1-4)GlcNAc(b1-2)Man(a1-3)[Gal(a1-4)Gal(b1-4)GlcNAc(b1-2)Man(a1-6)]Man(b1-4)GlcNAc(b1-4)GlcNAc
Summary of the method: as §1

[4] = biological target: Gal(a1-4)Gal(b1-4)GlcNAc(b1-3)Gal(b1-4)Glc
Summary of the method: as §1

Gal(a1-4)GlcNAc = biological target: Gal(a1-4)GlcNAc
Summary of the method: as §1

Gal(a1-6)Glc = biological target: Gal(a1-6)Glc
Summary of the method: as §1

Gal(b1-2)Gal = biological target: Gal(b1-2)Gal
Summary of the method: as §1

Gal(b1-3)Gal = biological target: Gal(b1-3)Gal
Summary of the method: as §1

Gal(b1-3)Gal(b1-4)GlcNAc = biological target: Gal(b1-3)Gal(b1-4)GlcNAc
Summary of the method: as §1

[5] = biological target: Gal(b1-3)Gal(b1-4)GlcNAc(b1-2)Man(a1-3)[Gal(b1-3)Gal(b1-4)GlcNAc(b1-2)Man(a1-6)]Man(b1-4)GlcNAc(b1-4)GlcNAc
Summary of the method: as §1

Gal(b1-3)GalNAc = biological target: Gal(b1-3)GalNAc
Summary of the method: as §1

[6] = biological target: Gal(b1-3)GalNAc(a1-3)[Fuc(a1-2)]Gal(b1-4)Glc
Summary of the method: as §1

[7] = biological target: Gal(b1-3)GalNAc(a1-3)[Fuc(a1-2)]Gal(b1-4)GlcNAc
Summary of the method: as §1

[8] = biological target: Gal(b1-3)GalNAc(b1-3)Gal(a1-4)Gal(b1-4)Glc
Summary of the method: as §1

[9] = biological target: Gal(b1-3)GalNAc(b1-4)Gal(b1-4)Glc
Summary of the method: as §1

[10] = biological target: Gal(b1-3)GalNAc(b1-4)[Neu5Ac(a2-3)]Gal(b1-4)Glc
Summary of the method: as §1

Gal(b1-3)GlcNAc = biological target: Gal(b1-3)GlcNAc
Summary of the method: as §1

[11] = biological target: Gal(b1-3)GlcNAc(a1-6)Gal(b1-4)GlcNAc
Summary of the method: as §1

[12] = biological target: Gal(b1-3)GlcNAc(b1-2)Man(a1-3)[Gal(b1-3)GlcNAc(b1-2)Man(a1-6)]Man(b1-4)GlcNAc(b1-4)GlcNAc
Summary of the method: as §1

[13] = biological target: Gal(b1-3)GlcNAc(b1-2)Man(a1-3)[Gal(b1-3)GlcNAc(b1-2)Man(a1-6)]Man(b1-4)GlcNAc(b1-4)[Fuc(a1-6)]GlcNAc
Summary of the method: as §1

[14] = biological target: Gal(b1-3)GlcNAc(b1-3)Gal(b1-3)GlcNAc
Summary of the method: as §1

[15] = biological target: Gal(b1-3)GlcNAc(b1-3)Gal(b1-4)Glc
Summary of the method: as §1

[16] = biological target: Gal(b1-3)GlcNAc(b1-3)Gal(b1-4)GlcNAc
Summary of the method: as §1

[17] = biological target: Gal(b1-3)GlcNAc(b1-3)Gal(b1-4)GlcNAc(b1-6)[Gal(b1-3)GlcNAc(b1-3)]Gal(b1-4)Glc
Summary of the method: as §1

[18] = biological target: Gal(b1-3)GlcNAc(b1-3)Gal(b1-4)[Fuc(a1-3)]GlcNAc(b1-6)[Gal(b1-3)GlcNAc(b1-3)]Gal(b1-4)Glc
Summary of the method: as §1

[19] = biological target: Gal(b1-3)GlcNAc(b1-3)GalNAc
Summary of the method: as §1

[20] = biological target: Gal(b1-3)GlcNAc(b1-6)Gal(b1-4)GlcNAc
Summary of the method: as §1

[21] = biological target: Gal(b1-3)[Fuc(a1-4)]GlcNAc
Summary of the method: as §1

[22] = biological target: Gal(b1-3)[Fuc(a1-4)]GlcNAc(b1-2)Man(a1-3)[Gal(b1-3)[Fuc(a1-4)]GlcNAc(b1-2)Man(a1-6)]Man(b1-4)GlcNAc(b1-4)GlcNAc
Summary of the method: as §1

[23] = biological target: Gal(b1-3)[Fuc(a1-4)]GlcNAc(b1-2)Man(a1-3)[Gal(b1-3)[Fuc(a1-4)]GlcNAc(b1-2)Man(a1-6)]Man(b1-4)GlcNAc(b1-4)[Fuc(a1-6)]GlcNAc
Summary of the method: as §1

[24] = biological target: Gal(b1-3)[Fuc(a1-4)]GlcNAc(b1-3)Gal(b1-3)[Fuc(a1-4)]GlcNAc
Summary of the method: as §1

[25] = biological target: Gal(b1-3)[Fuc(a1-4)]GlcNAc(b1-3)Gal(b1-4)GlcNAc
Summary of the method: as §1

[26] = biological target: Gal(b1-3)[Fuc(a1-4)]GlcNAc(b1-3)Gal(b1-4)[Fuc(a1-3)]GlcNAc
Summary of the method: as §1

[27] = biological target: Gal(b1-3)[GlcNAc(b1-6)]GalNAc
Summary of the method: as §1

B1: ZG-16 (Homo sapiens), O60844 (protein)
chain: IQARSSSYSGEYGSGGGKRFSHSGNQLDGPITALRVRVNTYYIVGLQVRYGKVWSDYVGGRNGDLEEIFLHPGESVIQVSGKYKWYLKKLVFVTDKGRYLSFGKDSGTSFNAVPLHPNTVLRFISGRSGSLIDAIGLHWDVYPTSCSRCSRGSDDDDKAEPRGPTIKPCPPCKCPAPNLLGGPSVFIFPPKIKDVLMISLSPIVTCVVVDVSEDDPDVQISWFVNNVEVHTAQTQTHREDYNSTLRVVSALPIQHQDWMSGKEFKCKVNNKDLPAPIERTISKPKGSVRAPQVYVLPPPEEEMTKKQVTLTCMVTDFMPEDIYVEWTNNGKTELNYKNTEPVLDSDGSYFMYSKLRVEKKNWVERNSYSCSVVHEGLHNHHTTKSFSRTPGKRTYHHHHHHARKLTR
- glycan array binding signal (z-score) (Gal(a1-3)GalNAc): -0.141
- glycan array binding signal (z-score) [1]: -0.123
- glycan array binding signal (z-score) [2]: -0.155
- glycan array binding signal (z-score) (Gal(a1-4)Gal(b1-4)Glc): -0.135
- glycan array binding signal (z-score) (Gal(a1-4)Gal(b1-4)GlcNAc): -0.196
- glycan array binding signal (z-score) [3]: -0.205
- glycan array binding signal (z-score) [4]: -0.224
- glycan array binding signal (z-score) (Gal(a1-4)GlcNAc): -0.193
- glycan array binding signal (z-score) (Gal(a1-6)Glc): -0.107
- glycan array binding signal (z-score) (Gal(b1-2)Gal): -0.2
- glycan array binding signal (z-score) (Gal(b1-3)Gal): -0.222
- glycan array binding signal (z-score) (Gal(b1-3)Gal(b1-4)GlcNAc): -0.231
- glycan array binding signal (z-score) [5]: -0.2
- glycan array binding signal (z-score) (Gal(b1-3)GalNAc): -0.173
- glycan array binding signal (z-score) [6]: -0.193
- glycan array binding signal (z-score) [7]: -0.202
- glycan array binding signal (z-score) [8]: -0.161
- glycan array binding signal (z-score) [9]: -0.193
- glycan array binding signal (z-score) [10]: -0.198
- glycan array binding signal (z-score) (Gal(b1-3)GlcNAc): 0.526
- glycan array binding signal (z-score) [11]: -0.161
- glycan array binding signal (z-score) [12]: -0.189
- glycan array binding signal (z-score) [13]: -0.177
- glycan array binding signal (z-score) [14]: -0.209
- glycan array binding signal (z-score) [15]: -0.226
- glycan array binding signal (z-score) [16]: -0.194
- glycan array binding signal (z-score) [17]: -0.221
- glycan array binding signal (z-score) [18]: -0.161
- glycan array binding signal (z-score) [19]: -0.187
- glycan array binding signal (z-score) [20]: -0.214
- glycan array binding signal (z-score) [21]: -0.207
- glycan array binding signal (z-score) [22]: -0.203
- glycan array binding signal (z-score) [23]: -0.202
- glycan array binding signal (z-score) [24]: -0.204
- glycan array binding signal (z-score) [25]: -0.207
- glycan array binding signal (z-score) [26]: -0.232
- glycan array binding signal (z-score) [27]: -0.188
